Assay results from PubChem BioAssay AID1345082 (National Center for Advancing Translational Sciences (NCATS), 2018).
The campaign covered roughly 94,000 compounds. About 4,000 (4.3%) were called active. The shares of active, inactive and inconclusive entries below differ from those in the screen. Calls come from the whole dose curve; as a rule, active = well fitted inhibition curve with a large enough effect; inconclusive = small, poorly fitted or top-dose-only effect; inactive = no such curve, though single readings can be large or run the other way. A potency beside an inconclusive call is a rough fit, not a confirmed value.
% is set by controls: 0 for no effect and ±100 for the full control effect; potency is the fitted concentration of half-maximal effect; tags give direction and shape of the fitted curve.

Assay: Cytotoxic Profiling in NIH 3T3 Cell Line of Diverse Libraries Using Quantitative High-Throughput Screening; note: nearly all actives have a fitted effect of over 55% in size
Settings: NIH 3T3 viability, CellTiter-Glo ATP luminescence, 48-72 h; activity change, negative = cytotoxicity: at 96.7 µM (top of the series); series mostly up to 96.7 µM
Text: Cell-based phenotypic screening is a commonly used approach to discover biological pathways, novel drug targets, chemical probes and high-quality hit-to-lead molecules. Many hits identified from high-throughput screening campaign are ruled out through a series of follow-up potency, selectivity/specificity, and cytotoxicity assays. Prioritization of molecules with little or no cytotoxicity for a more in-depth downstream evaluation influence the future direction of projects, so cytotoxicity profiling of the screening libraries at early stage is essential for increasing the likelihood of candidate success. In this study, we analyzed results from a cell-based cytotoxicity screening campaign, comprising nearly 10,000 compounds in NCATS annotated libraries, and over 100,000 compounds in a diversity library, evaluated in four normal cell lines (HEK 293, NIH 3T3, CRL-7250 and HaCat) and a cancer cell line (KB 3-1, a HeLa subline) with overall screening outcomes, hit rates, pan-activity and selectivity. For the annotated library, we also examined the primary targets and mechanistic pathways regularly associated with cell death. To our knowledge, this is the first study to use high-throughput screening to profile large libraries for cytotoxicity assessment in both normal and cancer cell lines. In summary, the results generated here constitutes a valuable resource for the scientific community and provides insight on identifying cytotoxic compounds with particular mechanisms of action, and prioritizing compounds with suitable cytotoxicity profile for further evaluation.
NIH 3T3 cells were seeded into white 1536-well plates using a Multidrop Combi peristaltic dispenser (ThermoFisher, Waltham, MA) at a density of 400 cells/well in 5 uL of medium respectively. A pintool (Kalypsys) was used to transfer 23 nL of compound solution to the 1536-well assay plates. After 48 or 72 hr incubation at 37 degree Celsius, 5% CO2 and 95% humidity, 2.5 uL of CellTiter-Glo (Promega) was dispensed into each well using a dispenser (Aspect Automation, St. Paul, MN) with solenoid valves (Lee Valves, Westbrook CT). Plates were left at room temperature for 10 min before imaging the ATP-coupled luminescence using a ViewLux microplate imager (PerkinElmer, Waltham, MA).
For O=C1NC(=NC2CCCCC2)C2(CCCN(Cc3ccccc3)C2)N1c1cccnc1 (stereo unspecified), the Potency was inconclusive: 50.1 µM [inhibitor, partial curve, poor fit].
In the case of COc1ccc(C(=O)NC2CCN(c3cc(-c4ccc(Cl)cc4)[nH]n3)C2)cc1OC (stereo unspecified), the Potency is reported as inconclusive: 44.7 µM [inhibitor, partial curve, poor fit].
With COc1cccc(Nc2cnc3ccc(-c4ccccc4OC)nn23)c1 the Potency was inconclusive: 44.7 µM [inhibitor, partial curve, poor fit].
In the case of NC(=O)NCC(=O)NC1CCCN(c2nc3ccccc3s2)C1 (stereo unspecified), the “activity change, negative = cytotoxicity” value is reported as inactive: -3.22%.
For O=C(Cn1nc2c(cc1=O)CCCC2)NCc1cccc(F)c1, the “outcome” value was “inactive”.
In the case of O=C(Nc1ccccc1)NC1CCN(Cc2ccc(-c3ccsc3)cc2)C1 (stereo unspecified), the Potency is reported as inconclusive: 31.6 µM [inhibitor, partial curve, poor fit].
For COc1cccc(C(=O)N2CC(Oc3ccccc3-c3nc(-c4cnccn4)no3)C2)c1, the Potency was inconclusive: 50.1 µM [inhibitor, partial curve, poor fit].
With COc1ccc(CCNc2ncnc3c2CN(C2CCCC2)C(=O)CN3C)cc1 the Potency was inconclusive: 50.1 µM [inhibitor, partial curve, poor fit].
In the case of O=C(CCn1cnc(-c2ccccc2)c1-c1cc2ccccc2[nH]1)N1CCCC1, the Potency is reported as inconclusive: 50.1 µM [inhibitor, partial curve, poor fit].
With O=C(c1ccccc1OCC1CCCN(Cc2cccc(O)c2)C1)N1CCCC1 (stereo unspecified) the “outcome” value was “inactive”.
In the case of O=C([C@@H]1C[C@H](Oc2ccccc2)CN1C(=O)CCc1c[nH]c2ccccc12)N1CCOCC1, the “activity change, negative = cytotoxicity” value is reported as inactive: -23.2%.
In the case of CC(NC(=O)C1CCN(c2nccc(Nc3ccccc3Cl)n2)CC1)c1ccc(F)cc1 (stereo unspecified), the Potency is reported as active: 31.6 µM.
For Cc1cc(C)cc(C(=O)NC2CCN(c3cnn(C)c(=O)c3)CC2)c1, the Potency was active: 39.8 µM.
With Cn1ncc2c(N3CCN(S(N)(=O)=O)CC3)nc(-c3cccnc3)nc21 the Potency was active: 39.8 µM.
For O=C(NCC1CCCO1)c1cnc2c(c1)N(Cc1ccccc1)CCC2 (stereo unspecified), the Potency was inconclusive: 112 µM [inhibitor, single point].
For O=C(CN1C(=O)CCC1=O)N1CCC(CCOc2ccccc2F)C1 (stereo unspecified), the “activity change, negative = cytotoxicity” value was inactive: -27.9%.
With COc1ccc(N2CCN(C(=O)c3ccc4c(c3)N(C)C3CCCCCN3C4=O)CC2)cc1 (stereo unspecified) the “activity change, negative = cytotoxicity” value was inactive: -39.4%.
With O=C(NCc1ccccc1F)C1CCCCN1Cc1ccc(-c2ccsc2)cc1 (stereo unspecified) the Potency was active: 31.6 µM.
For Cc1noc(C)c1C(=O)N1Cc2ccccc2CC2(CCCN2C)C1 (stereo unspecified), the “activity change, negative = cytotoxicity” value was inactive: -16.6%.
With O=C(Cn1ccn2nc(-c3ccc(F)cc3)c(CO)c2c1=O)Nc1ccc(C(F)(F)F)cc1 the Potency was inconclusive: 70.8 µM [inhibitor, single point].
In the case of CCCNC(=O)NCC1Cn2cccc2CN1Cc1ccccc1 (stereo unspecified), the Potency is reported as inconclusive: 50.1 µM [inhibitor, partial curve, poor fit].
In the case of FC(F)(F)c1ccc(N2C3CCC2CN(Cc2cccs2)C3)cc1, the Potency is reported as inconclusive: 50.1 µM [inhibitor, partial curve, poor fit].
In the case of O=C(Nc1cccc(C(F)(F)F)c1)c1nc2c(o1)CCN(Cc1cccs1)CC2, the Potency is reported as inconclusive: 56.2 µM [inhibitor, partial curve, poor fit].
With CCOc1ccc(CC(=O)NC2CCN(c3cc(-c4ccc(F)cc4)[nH]n3)CC2)cc1OCC the Potency was inconclusive: 28.2 µM [inhibitor, partial curve].
With Cc1ccc(NC(=O)C2CCN(C(=O)c3ncn4c3COC(c3ccc(F)cc3)C4)CC2)c(F)c1 (stereo unspecified) the “outcome” value was “inactive”.
With COc1ccc(CCC(=O)N2CCCN(c3cc(-c4ccc(Br)cc4)[nH]n3)CC2)cc1 the Potency was inconclusive: 44.7 µM [inhibitor, partial curve, poor fit].
With CC(C)C1=NOC2(CCCN([S+](=O)([O-])c3cccs3)C2)C1 (stereo unspecified) the “outcome” value was “inactive”.
In the case of COc1ccc(CNC(=O)C2CCN(C(=O)c3ccc(-c4ccccc4OC)cc3)CC2)cc1, the Potency is reported as inconclusive: 50.1 µM [inhibitor, partial curve, poor fit].
In the case of COC[C@@]12CC[C@@H](N3CCOCC3)C[C@H]1CCN(Cc1cccc3nonc13)C2, the Potency is reported as inconclusive: 79.4 µM [inhibitor, partial curve, poor fit].
In the case of Cc1ccc(Nc2ccnc(N3CCC(C(=O)N4CCOCC4)CC3)n2)cc1, the Potency is reported as inconclusive: 39.8 µM [inhibitor, partial curve, poor fit].
For COc1ccc(-c2ccccc2NC(=O)C2CCCN(Cc3cccc(F)c3F)C2)cc1 (stereo unspecified), the Potency was inconclusive: 79.4 µM [inhibitor, single point].
In the case of CCC[C@H]1CN(S(=O)(=O)c2ccc(-c3ccn[nH]3)o2)C[C@@H]1N, the Potency is reported as inconclusive: 28.2 µM [inhibitor, full curve, poor fit].
In the case of CC(C)C(=O)N1CCC(CCOc2ccc(F)cc2)C1 (stereo unspecified), the Potency is reported as inconclusive: 28.2 µM [inhibitor, full curve, poor fit].
In the case of O=C(c1cccc(Cl)c1)N1CCCC(C(=O)N2CCC(N3Cc4cccn4C3=O)CC2)C1 (stereo unspecified), the Potency is reported as inconclusive: 50.1 µM [inhibitor, partial curve, poor fit].
In the case of COc1ccccc1N1CCCc2ncc(C(=O)N3CCC[C@@H]3c3ccc(F)cc3)cc21, the Potency is reported as active: 89.1 µM.
With O=C(c1cccs1)N1CCC(N2C(=O)C(OCC3CC3)C23CCCCC3)CC1 (stereo unspecified) the “activity change, negative = cytotoxicity” value was inactive: -3.65%.
For CCOC(=O)C1(Cc2ccccc2F)CCCN(C(=O)c2ccc3c(c2)OCCO3)C1 (stereo unspecified), the Potency was inconclusive: 31.6 µM [inhibitor, partial curve, poor fit].
With CCN1CCN(CCNC(=O)c2cccc3c2CCN3C(=O)Nc2ccc(C)cc2)CC1 the Potency was inconclusive: 70.8 µM [inhibitor, single point].
In the case of O=C(c1cn[nH]c1)N1CC2(CN(Cc3cccc(OC(F)(F)F)c3)CC2COc2ccccc2)C1 (stereo unspecified), the Potency is reported as inconclusive: 50.1 µM [inhibitor, partial curve, poor fit].
In the case of COc1cccc(CNc2ncnc3c2CN(C2CCCNCC2)C(=O)CN3C)c1 (stereo unspecified), the “outcome” value is reported as “inactive”.
For Cc1ccccc1C(=O)N1CCCC1C(=O)N1CCC(c2nc3ccncc3[nH]2)C1 (stereo unspecified), the “activity change, negative = cytotoxicity” value was inactive: -11.5%.
